# Some of the results follow.
# B1: PX14379A-bvu-539-28-539 (Bacteroides vulgatus) (protein)
# chain: EPYSEIIEEDYVPTEADEIALLATTYSQLRFVMDWYGLFDLQEESGDVIVTPTRPNGWDDGGTYKQMHKHTWDNQQGQPQSIWDYCYKGIANANKILKRADEGFFTEESKPKVVAEVKGVRALWYSILCDTHGNIPIQTSFSEEVPVQSTRKQVFDFIINELKEVMPNLPTEVNKSTYGRLTQWGAKCLMARMYLNAGVYTGTPMWNECLEQCNDIINSGLFSLETNYTDIFKTENSGCVETIFAIPYDEVYNEGDNNGPVFGAHMKFLSSNSRKVFNMQTTPWGGSAANPQFINSYDPDDMRLKYTWLQGDQYSPDGVLITTFPNKLPSIYKTDTDDGYRVGKYEIKVGAKSLLSNDFPYFRYTEVLLMKAECLLRLGQNETEAAHIVSQIRERAFRESAHPEKATVDAAWLKGDTHINYGTLDEKGQIDDAGNTEVVELGGLYDEWGWEFAAEARRRTDMIRFGTYQKKSWFNHTPTANDLNGNSILFPIHLDHLNTNPNLQQNPGYAGK
# Columns and labels:
# Assay in all cases: glycan array binding signal (z-score within array); higher = stronger binding
# Details in all cases: glycan notation: IUPAC condensed, linker removed
# Gal(b1-2)Gal = target: Gal(b1-2)Gal
# Method in brief: (§1)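 The binding signal is a Z-score computed within each array and averaged over linkers. Arrays of the same protein sequence at different concentrations or buffers were also averaged together. Data originate from 3228 arrays in the Consortium for Functional Glycomics database, kept only where the protein sequence was available.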
# Gal(b1-3)Gal = target: Gal(b1-3)Gal
# Method in brief: as §1
# Gal(b1-3)Gal(b1-4)GlcNAc = target: Gal(b1-3)Gal(b1-4)GlcNAc
# Method in brief: as §1
# Gal(b1-3)GalNAc = target: Gal(b1-3)GalNAc
# Method in brief: as §1
# [1] = target: Gal(b1-3)GalNAc(a1-3)[Fuc(a1-2)]Gal(b1-4)Glc
# Method in brief: as §1
# [2] = target: Gal(b1-3)GalNAc(a1-3)[Fuc(a1-2)]Gal(b1-4)GlcNAc
# Method in brief: as §1
# Gal(b1-3)GalNAc(b1-3)Gal = target: Gal(b1-3)GalNAc(b1-3)Gal
# Method in brief: as §1
# [3] = target: Gal(b1-3)GalNAc(b1-3)Gal(a1-4)Gal(b1-4)Glc
# Method in brief: as §1
# [4] = target: Gal(b1-3)GalNAc(b1-4)Gal(b1-4)Glc
# Method in brief: as §1
# [5] = target: Gal(b1-3)GalNAc(b1-4)[Neu5Ac(a2-3)]Gal(b1-4)Glc
# Method in brief: as §1
# Gal(b1-3)GlcNAc = target: Gal(b1-3)GlcNAc
# Method in brief: as §1
# [6] = target: Gal(b1-3)GlcNAc(a1-3)Gal(b1-4)GlcNAc
# Method in brief: as §1
# [7] = target: Gal(b1-3)GlcNAc(a1-6)Gal(b1-4)GlcNAc
# Method in brief: as §1
# Gal(b1-3)GlcNAc(b1-2)Man = target: Gal(b1-3)GlcNAc(b1-2)Man
# Method in brief: as §1
# [8] = target: Gal(b1-3)GlcNAc(b1-2)Man(a1-3)[Gal(b1-3)GlcNAc(b1-2)Man(a1-6)]Man(b1-4)GlcNAc(b1-4)GlcNAc
# Method in brief: as §1
# [9] = target: Gal(b1-3)GlcNAc(b1-2)Man(a1-3)[Gal(b1-3)GlcNAc(b1-2)Man(a1-6)]Man(b1-4)GlcNAc(b1-4)[Fuc(a1-6)]GlcNAc
# Method in brief: as §1
# [10] = target: Gal(b1-3)GlcNAc(b1-2)Man(a1-3)[GlcNAc(b1-4)][Gal(b1-3)GlcNAc(b1-2)Man(a1-6)]Man(b1-4)GlcNAc(b1-4)GlcNAc
# Method in brief: as §1
# [11] = target: Gal(b1-3)GlcNAc(b1-2)[Gal(b1-3)GlcNAc(b1-6)]Man(a1-6)[Gal(b1-3)GlcNAc(b1-2)Man(a1-3)]Man(b1-4)GlcNAc(b1-4)GlcNAc
# Method in brief: as §1
# [12] = target: Gal(b1-3)GlcNAc(b1-3)Gal(b1-3)GlcNAc
# Method in brief: as §1
# [13] = target: Gal(b1-3)GlcNAc(b1-3)Gal(b1-4)Glc
# Method in brief: as §1
# [14] = target: Gal(b1-3)GlcNAc(b1-3)Gal(b1-4)GlcNAc
# Method in brief: as §1
# [15] = target: Gal(b1-3)GlcNAc(b1-3)Gal(b1-4)GlcNAc(b1-2)Man(a1-3)[Gal(b1-3)GlcNAc(b1-3)Gal(b1-4)GlcNAc(b1-2)Man(a1-6)]Man(b1-4)GlcNAc(b1-4)GlcNAc
# Method in brief: as §1
# [16] = target: Gal(b1-3)GlcNAc(b1-3)Gal(b1-4)GlcNAc(b1-2)[Gal(b1-3)GlcNAc(b1-3)Gal(b1-4)GlcNAc(b1-6)]Man(a1-6)[Gal(b1-3)GlcNAc(b1-3)Gal(b1-4)GlcNAc(b1-2)Man(a1-3)]Man(b1-4)GlcNAc(b1-4)[Fuc(a1-6)]GlcNAc
# Method in brief: as §1
# [17] = target: Gal(b1-3)GlcNAc(b1-3)Gal(b1-4)GlcNAc(b1-3)Gal(b1-4)GlcNAc(b1-2)[Gal(b1-3)GlcNAc(b1-3)Gal(b1-4)GlcNAc(b1-3)Gal(b1-4)GlcNAc(b1-6)]Man(a1-6)[Gal(b1-3)GlcNAc(b1-3)Gal(b1-4)GlcNAc(b1-3)Gal(b1-4)GlcNAc(b1-2)Man(a1-3)]Man(b1-4)GlcNAc(b1-4)[Fuc(a1-6)]GlcNAc
# Method in brief: as §1
# [18] = target: Gal(b1-3)GlcNAc(b1-3)Gal(b1-4)GlcNAc(b1-6)[Gal(b1-3)GlcNAc(b1-3)]Gal(b1-4)Glc
# Method in brief: as §1
# [19] = target: Gal(b1-3)GlcNAc(b1-3)Gal(b1-4)[Fuc(a1-3)]GlcNAc
# Method in brief: as §1
# [20] = target: Gal(b1-3)GlcNAc(b1-3)Gal(b1-4)[Fuc(a1-3)]GlcNAc(b1-6)[Gal(b1-3)GlcNAc(b1-3)]Gal(b1-4)Glc
# Method in brief: as §1
# [21] = target: Gal(b1-3)GlcNAc(b1-3)GalNAc
# Method in brief: as §1
# [22] = target: Gal(b1-3)GlcNAc(b1-6)Gal(b1-4)GlcNAc
# Method in brief: as §1
# [23] = target: Gal(b1-3)GlcNAc(b1-6)GalNAc
# Method in brief: as §1
# [24] = target: Gal(b1-3)GlcNAc(b1-6)[Gal(b1-3)]GalNAc
# Method in brief: as §1
# Gal(b1-3)GlcNAc6S = target: Gal(b1-3)GlcNAc6S
# Method in brief: as §1
# [25] = target: Gal(b1-3)[Fuc(a1-4)]GlcNAc
# Method in brief: as §1
# [26] = target: Gal(b1-3)[Fuc(a1-4)]GlcNAc(b1-2)Man
# Method in brief: as §1
# [27] = target: Gal(b1-3)[Fuc(a1-4)]GlcNAc(b1-2)Man(a1-3)[Gal(b1-3)[Fuc(a1-4)]GlcNAc(b1-2)Man(a1-6)]Man(b1-4)GlcNAc(b1-4)[Fuc(a1-6)]GlcNAc
# Method in brief: as §1
# [28] = target: Gal(b1-3)[Fuc(a1-4)]GlcNAc(b1-3)Gal(b1-3)[Fuc(a1-4)]GlcNAc
# Method in brief: as §1
# [29] = target: Gal(b1-3)[Fuc(a1-4)]GlcNAc(b1-3)Gal(b1-4)[Fuc(a1-3)]GlcNAc
# Method in brief: as §1
binder,measurement,setting,value
B1,glycan array binding signal (z-score),Gal(b1-2)Gal,-0.329
same,glycan array binding signal (z-score),Gal(b1-3)Gal,-0.377
same,glycan array binding signal (z-score),Gal(b1-3)Gal(b1-4)GlcNAc,-0.359
same,glycan array binding signal (z-score),Gal(b1-3)GalNAc,-0.242
same,glycan array binding signal (z-score),[1],-0.048
same,glycan array binding signal (z-score),[2],-0.172
same,glycan array binding signal (z-score),Gal(b1-3)GalNAc(b1-3)Gal,-0.51
same,glycan array binding signal (z-score),[3],-0.318
same,glycan array binding signal (z-score),[4],0.199
same,glycan array binding signal (z-score),[5],-0.503
same,glycan array binding signal (z-score),Gal(b1-3)GlcNAc,-0.23
same,glycan array binding signal (z-score),[6],-0.463
same,glycan array binding signal (z-score),[7],0.75
same,glycan array binding signal (z-score),Gal(b1-3)GlcNAc(b1-2)Man,0.056
same,glycan array binding signal (z-score),[8],0.258
same,glycan array binding signal (z-score),[9],0.386
same,glycan array binding signal (z-score),[10],0.411
same,glycan array binding signal (z-score),[11],5.87
same,glycan array binding signal (z-score),[12],0.03
same,glycan array binding signal (z-score),[13],-0.39
same,glycan array binding signal (z-score),[14],-0.069
same,glycan array binding signal (z-score),[15],0.904
same,glycan array binding signal (z-score),[16],0.394
same,glycan array binding signal (z-score),[17],1.51
same,glycan array binding signal (z-score),[18],-0.363
same,glycan array binding signal (z-score),[19],-0.515
same,glycan array binding signal (z-score),[20],-0.153
same,glycan array binding signal (z-score),[21],-0.165
same,glycan array binding signal (z-score),[22],-0.27
same,glycan array binding signal (z-score),[23],-0.344
same,glycan array binding signal (z-score),[24],1.75
same,glycan array binding signal (z-score),Gal(b1-3)GlcNAc6S,0.002
same,glycan array binding signal (z-score),[25],-0.374
same,glycan array binding signal (z-score),[26],-0.391
same,glycan array binding signal (z-score),[27],0.335
same,glycan array binding signal (z-score),[28],-0.467
same,glycan array binding signal (z-score),[29],0.155

# Source: the supplement of paper PMC8728848
